# Measured values from the supplement of paper PMC8728848.
# The other results are listed elsewhere or left out.
# B1: Calsepa (Calystegia sepium), P93114 (protein)
# chain: MAVPMDTISGPWGNNGGNFWSFRPVNKINQIVISYGGGGNNPIALTFSSTKADGSKDTITVGGGGPDSITGTEMVNIGTDEYLTGISGTFGIYLDNNVLRSITFTTNLKAHGPYGQKVGTPFSSANVVGNEIVGFLGRSGYYVDAIGTYNRHK
# Experiments:
# Experiment in all cases: glycan array binding signal (z-score within array); higher = stronger binding
# Settings in all cases: glycan notation: IUPAC condensed, linker removed
# [1] = molecular target: GlcNAc(b1-2)[GlcNAc(b1-4)]Man(a1-3)[GlcNAc(b1-4)][GlcNAc(b1-2)Man(a1-6)]Man(b1-4)GlcNAc(b1-4)GlcNAc
# How it was run: (§1)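 The binding signal is a Z-score computed within each array. Data were drawn from 3228 arrays in the Consortium for Functional Glycomics database, restricted to those with a known protein sequence. Scores were averaged over arrays of the same protein sequence at different concentrations or buffers, and over linkers, and negative values can be taken as non-binding.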
# [2] = molecular target: GlcNAc(b1-2)[GlcNAc(b1-4)]Man(a1-3)[GlcNAc(b1-4)][GlcNAc(b1-2)[GlcNAc(b1-6)]Man(a1-6)]Man(b1-4)GlcNAc(b1-4)GlcNAc
# How it was run: as §1
# [3] = molecular target: GlcNAc(b1-2)[GlcNAc(b1-4)]Man(a1-3)[GlcNAc(b1-4)][GlcNAc(b1-2)[GlcNAc(b1-6)]Man(a1-6)]Man(b1-4)GlcNAc(b1-4)[Fuc(a1-6)]GlcNAc
# How it was run: as §1
# [4] = molecular target: GlcNAc(b1-2)[GlcNAc(b1-6)]Man(a1-6)[GlcNAc(b1-2)Man(a1-3)]Man(b1-4)GlcNAc(b1-4)GlcNAc
# How it was run: as §1
# [5] = molecular target: GlcNAc(b1-2)[GlcNAc(b1-6)]Man(a1-6)[GlcNAc(b1-2)Man(a1-3)]Man(b1-4)GlcNAc(b1-4)[Fuc(a1-6)]GlcNAc
# How it was run: as §1
# [6] = molecular target: GlcNAc(b1-2)[GlcNAc(b1-6)]Man(a1-6)[GlcNAc(b1-2)Man(a1-3)][GlcNAc(b1-4)]Man(b1-4)GlcNAc(b1-4)GlcNAc
# How it was run: as §1
# [7] = molecular target: GlcNAc(b1-3)Gal
# How it was run: as §1
# [8] = molecular target: GlcNAc(b1-3)Gal(b1-3)GalNAc
# How it was run: as §1
# [9] = molecular target: GlcNAc(b1-3)Gal(b1-4)Glc
# How it was run: as §1
# [10] = molecular target: GlcNAc(b1-3)Gal(b1-4)GlcNAc
# How it was run: as §1
# [11] = molecular target: GlcNAc(b1-3)Gal(b1-4)GlcNAc(b1-3)Gal(b1-4)GlcNAc
# How it was run: as §1
# [12] = molecular target: GlcNAc(b1-3)GalNAc
# How it was run: as §1
# [13] = molecular target: GlcNAc(b1-3)Man
# How it was run: as §1
# [14] = molecular target: GlcNAc(b1-3)[GlcNAc(b1-4)][GlcNAc(b1-6)]GlcNAc
# How it was run: as §1
# [15] = molecular target: GlcNAc(b1-3)[GlcNAc(b1-6)]Gal(b1-4)GlcNAc
# How it was run: as §1
# [16] = molecular target: GlcNAc(b1-3)[GlcNAc(b1-6)]GalNAc
# How it was run: as §1
# [17] = molecular target: GlcNAc(b1-4)Gal(b1-4)GlcNAc
# How it was run: as §1
# [18] = molecular target: GlcNAc(b1-4)GlcNAc
# How it was run: as §1
# [19] = molecular target: GlcNAc(b1-4)GlcNAc(b1-4)GlcNAc
# How it was run: as §1
# [20] = molecular target: GlcNAc(b1-4)GlcNAc(b1-4)GlcNAc(b1-4)GlcNAc(b1-4)GlcNAc
# How it was run: as §1
# [21] = molecular target: GlcNAc(b1-4)GlcNAc(b1-4)GlcNAc(b1-4)GlcNAc(b1-4)GlcNAc(b1-4)GlcNAc
# How it was run: as §1
# [22] = molecular target: GlcNAc(b1-4)[GlcNAc(b1-6)]GalNAc
# How it was run: as §1
# [23] = molecular target: GlcNAc(b1-6)Gal(b1-4)GlcNAc
# How it was run: as §1
# [24] = molecular target: GlcNAc(b1-6)GalNAc
# How it was run: as §1
# [25] = molecular target: GlcNAc3Prop(b1-4)GlcNAc
# How it was run: as §1
# [26] = molecular target: GlcNAc6S(b1-3)Gal(b1-4)GlcNAc
# How it was run: as §1
# [27] = molecular target: Kdn(a2-3)Gal(b1-3)GalNAc
# How it was run: as §1
# [28] = molecular target: Kdn(a2-3)Gal(b1-3)GlcNAc
# How it was run: as §1
# [29] = molecular target: Kdn(a2-3)Gal(b1-4)Glc
# How it was run: as §1
# [30] = molecular target: Kdn(a2-3)Gal(b1-4)GlcNAc
# How it was run: as §1
# [31] = molecular target: Kdn(a2-3)Gal(b1-4)[Fuc(a1-3)]GlcNAc
# How it was run: as §1
# [32] = molecular target: Kdn(a2-6)Gal(b1-4)GlcNAc
# How it was run: as §1
# [33] = molecular target: Man(a1-2)Man(a1-2)Man(a1-3)Man
# How it was run: as §1
# [34] = molecular target: Man(a1-2)Man(a1-2)Man(a1-6)[Man(a1-3)]Man
# How it was run: as §1
# [35] = molecular target: Man(a1-2)Man(a1-3)Man
# How it was run: as §1
# [36] = molecular target: Man(a1-2)Man(a1-3)[Man(a1-2)Man(a1-6)]Man
# How it was run: as §1
# [37] = molecular target: Man(a1-2)Man(a1-3)[Man(a1-2)Man(a1-6)]Man(a1-6)[Man(a1-2)Man(a1-2)Man(a1-3)]Man
# How it was run: as §1
# [38] = molecular target: Man(a1-2)Man(a1-3)[Man(a1-2)Man(a1-6)]Man(a1-6)[Man(a1-2)Man(a1-2)Man(a1-3)]Man(b1-4)GlcNAc(b1-4)GlcNAc
# How it was run: as §1
# [39] = molecular target: Man(a1-2)Man(a1-3)[Man(a1-6)]Man(a1-6)[Man(a1-2)Man(a1-3)]Man(b1-4)GlcNAc(b1-4)GlcNAc
# How it was run: as §1
# [40] = molecular target: Man(a1-2)Man(a1-6)[Man(a1-3)]Man(a1-6)[Man(a1-2)Man(a1-2)Man(a1-3)]Man
# How it was run: as §1
# [41] = molecular target: Man(a1-2)Man(a1-6)[Man(a1-3)]Man(a1-6)[Man(a1-2)Man(a1-2)Man(a1-3)]Man(b1-4)GlcNAc(b1-4)GlcNAc
# How it was run: as §1
# [42] = molecular target: Man(a1-3)[Man(a1-6)]Man
# How it was run: as §1
# [43] = molecular target: Man(a1-3)[Man(a1-6)]Man(a1-6)[Man(a1-2)Man(a1-3)]Man(b1-4)GlcNAc(b1-4)GlcNAc
# How it was run: as §1
# [44] = molecular target: Man(a1-3)[Man(a1-6)]Man(a1-6)[Man(a1-3)]Man
# How it was run: as §1
# [45] = molecular target: Man(a1-3)[Man(a1-6)]Man(a1-6)[Man(a1-3)]Man(b1-4)GlcNAc(b1-4)GlcNAc
# How it was run: as §1
binder,measurement,setting,value
B1,glycan array binding signal (z-score),[1],-0.258
same,glycan array binding signal (z-score),[2],-0.222
same,glycan array binding signal (z-score),[3],-0.271
same,glycan array binding signal (z-score),[4],1.41
same,glycan array binding signal (z-score),[5],-0.153
same,glycan array binding signal (z-score),[6],5.82
same,glycan array binding signal (z-score),[7],-0.248
same,glycan array binding signal (z-score),[8],-0.249
same,glycan array binding signal (z-score),[9],-0.243
same,glycan array binding signal (z-score),[10],-0.244
same,glycan array binding signal (z-score),[11],-0.255
same,glycan array binding signal (z-score),[12],-0.254
same,glycan array binding signal (z-score),[13],-0.255
same,glycan array binding signal (z-score),[14],-0.241
same,glycan array binding signal (z-score),[15],-0.254
same,glycan array binding signal (z-score),[16],-0.257
same,glycan array binding signal (z-score),[17],-0.244
same,glycan array binding signal (z-score),[18],-0.251
same,glycan array binding signal (z-score),[19],-0.243
same,glycan array binding signal (z-score),[20],-0.25
same,glycan array binding signal (z-score),[21],-0.247
same,glycan array binding signal (z-score),[22],-0.255
same,glycan array binding signal (z-score),[23],-0.248
same,glycan array binding signal (z-score),[24],-0.256
same,glycan array binding signal (z-score),[25],-0.246
same,glycan array binding signal (z-score),[26],-0.246
same,glycan array binding signal (z-score),[27],-0.123
same,glycan array binding signal (z-score),[28],-0.251
same,glycan array binding signal (z-score),[29],-0.249
same,glycan array binding signal (z-score),[30],-0.25
same,glycan array binding signal (z-score),[31],-0.237
same,glycan array binding signal (z-score),[32],-0.252
same,glycan array binding signal (z-score),[33],-0.252
same,glycan array binding signal (z-score),[34],-0.252
same,glycan array binding signal (z-score),[35],-0.248
same,glycan array binding signal (z-score),[36],-0.251
same,glycan array binding signal (z-score),[37],-0.254
same,glycan array binding signal (z-score),[38],-0.208
same,glycan array binding signal (z-score),[39],-0.239
same,glycan array binding signal (z-score),[40],-0.239
same,glycan array binding signal (z-score),[41],-0.242
same,glycan array binding signal (z-score),[42],-0.244
same,glycan array binding signal (z-score),[43],0.764
same,glycan array binding signal (z-score),[44],-0.185
same,glycan array binding signal (z-score),[45],0.986
